# According to the supplement of paper PMC10369915:
# This is one part of the list. Rule as the data show it: active = 3.2 or more and inactive = the rest. Only a few entries rise above the background.
# B1: TNIK_Y40 (peptide)
# chain: TYGQVYKGRHV
# B2: TNK1_Y277 (peptide)
# chain: GARGRYVMGGP
# B3: TNK2_Y635_V638M (peptide)
# chain: PPPPAYDDMAQ
# B4: TNNI3_Y112 (peptide)
# chain: VDEERYDIEAK
# B5: TNNI3_Y112_A116G (peptide)
# chain: VDEERYDIEGK
# B6: TNNI3_Y29_H34Q_YF (peptide)
# chain: SNFRAYATEPQ
# B7: TNNI3_Y29_YF (peptide)
# chain: SNFRAYATEPH
# B8: TNNI3K_Y425 (peptide)
# chain: GGDGSYVSVPS
# B9: TNNI3K_Y788_A785G (peptide)
# chain: QSGGQYSSQGL
# B10: TNRC6B_Y1382_M1380L (peptide)
# chain: SGGLDYGMVGG
# B11: TNS1_Y793_Y796C_YF (peptide)
# chain: PPGRSYSPCDF
# B12: TNS1_Y793_YF (peptide)
# chain: PPGRSYSPFDF
# B13: TNS1_Y798_Y796C_YF (peptide)
# chain: FSPCDYQPCLA
# B14: TNS2_Y668_A670T_YF (peptide)
# chain: TGDFGYRTPGF
# B15: TNS2_Y673_A670T (peptide)
# chain: YRTPGYREVVI
# B16: TNS2_Y673_YF (peptide)
# chain: FRAPGYREVVI
# B17: TNS4_Y644_R642C (peptide)
# chain: FFRCHYPLTTL
# B18: TOM1L1_Y109 (peptide)
# chain: LLNPRYNLPLD
# B19: TOM1L1_Y109_R108S (peptide)
# chain: LLNPSYNLPLD
# B20: TOP1_Y723_N722S (peptide)
# chain: TSKLSYLDPRI
# B21: TP53_Y126_A129D (peptide)
# chain: SVTCTYSPDLN
# B22: TP53_Y126_C124G (peptide)
# chain: SVTGTYSPALN
# B23: TP53_Y126_C124Y (peptide)
# chain: SVTYTYSPALN
# B24: TP53_Y126_C124Y_YF (peptide)
# chain: SVTFTYSPALN
# B25: TP53_Y126_L130F (peptide)
# chain: SVTCTYSPAFN
# B26: TP53_Y126_L130I (peptide)
# chain: SVTCTYSPAIN
# B27: TP53_Y126_N131D (peptide)
# chain: SVTCTYSPALD
# B28: TP53_Y126_N131I (peptide)
# chain: SVTCTYSPALI
# B29: TP53_Y126_N131K (peptide)
# chain: SVTCTYSPALK
# B30: TP53_Y126_N131S (peptide)
# chain: SVTCTYSPALS
# B31: TP53_Y126_N131Y_YF (peptide)
# chain: SVTCTYSPALF
# B32: TP53_Y126_S127P (peptide)
# chain: SVTCTYPPALN
# B33: TP53_Y126_S127Y (peptide)
# chain: SVTCTYYPALN
# B34: TP53_Y126_T125A (peptide)
# chain: SVTCAYSPALN
# B35: TP53_Y126_T125P (peptide)
# chain: SVTCPYSPALN
# B36: TP53_Y126_T125R (peptide)
# chain: SVTCRYSPALN
# B37: TP53_Y126_Y126D (peptide)
# chain: SVTCTDSPALN
# Molecular target: SHP2 C-SH2 domain E139D
# Assay: enrichment score (SH2-bound / input frequency) (ratio); bacterial display of known human phosphotyrosine sites (pTyr-Var adds point mutants) read by sequencing; higher = stronger binding; tyrosines were phosphorylated by kinases first
# Details: peptide library: pTyr-Var
# 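Also: displayed peptides selected on beads carrying the immobilized SH2 domain, with library peptides lacking any tyrosine serving as negative controls.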
row,Binder,enrichment score
1,B1,inactive: 0.851
2,B2,inactive: 0.346
3,B3,inactive: 0.414
4,B4,inactive: 0.52
5,B5,inactive: 0.357
6,B6,inactive: 0.551
7,B7,inactive: 0.469
8,B8,inactive: 0.58
9,B9,inactive: 0.554
10,B10,inactive: 0.603
11,B11,inactive: 0.673
12,B12,inactive: 0.836
13,B13,active: 3.38
14,B14,inactive: 0.466
15,B15,inactive: 1.03
16,B16,inactive: 1.16
17,B17,inactive: 1.09
18,B18,inactive: 0.992
19,B19,inactive: 1.33

row,Binder,enrichment score
1,B20,inactive: 0.742
2,B21,inactive: 1.36
3,B22,inactive: 0.766
4,B23,inactive: 0.672
5,B24,inactive: 0.945
6,B25,inactive: 0.865
7,B26,inactive: 1.5
8,B27,inactive: 0.925
9,B28,inactive: 1.03
10,B29,inactive: 0.832
11,B30,inactive: 1.23
12,B31,inactive: 0.922
13,B32,inactive: 0.68
14,B33,inactive: 0.779
15,B34,inactive: 0.822
16,B35,inactive: 0.876
17,B36,inactive: 1.37
18,B37,inactive: 1.02

# Molecular target: SHP2 C-SH2 domain wild-type
# Assay: as above
# Details: peptide library: pTyr-Var
row,Binder,enrichment score
1,B1,inactive: 0.925
2,B2,inactive: 0.258
3,B3,inactive: 0.475
4,B4,inactive: 0.518
5,B5,inactive: 0.555
6,B6,inactive: 0.51
7,B7,inactive: 0.49
8,B8,inactive: 0.364
9,B9,inactive: 0.575
10,B10,inactive: 0.577
11,B11,inactive: 0.67
12,B12,inactive: 0.926
13,B13,inactive: 3.04
14,B14,inactive: 0.414
15,B15,inactive: 0.876
16,B16,inactive: 0.915
17,B17,inactive: 1.22
18,B18,inactive: 0.701
19,B19,inactive: 0.928

row,Binder,enrichment score
1,B20,inactive: 0.689
2,B21,inactive: 1.35
3,B22,inactive: 0.751
4,B23,inactive: 0.979
5,B24,inactive: 0.87
6,B25,inactive: 1.63
7,B26,inactive: 1.65
8,B27,inactive: 1.42
9,B28,inactive: 1.5
10,B29,inactive: 1.08
11,B30,inactive: 1.11
12,B31,inactive: 1.19
13,B32,inactive: 0.736
14,B33,inactive: 1.18
15,B34,inactive: 1.01
16,B35,inactive: 1.01
17,B36,inactive: 1.03
18,B37,inactive: 0.964

# Molecular target: SHP2 N-SH2 domain L43F
# Assay: as above
# Details: peptide library: pTyr-Var
row,Binder,enrichment score
1,B1,inactive: 1.15
2,B2,inactive: 0.371
3,B3,inactive: 0.575
4,B4,inactive: 0.493
5,B5,inactive: 0.341
6,B6,inactive: 0.515
7,B7,inactive: 0.482
8,B8,inactive: 0.513
9,B9,inactive: 0.436
10,B10,inactive: 0.657
11,B11,inactive: 0.85
12,B12,inactive: 0.991
13,B13,active: 3.82
14,B14,inactive: 0.603
15,B15,inactive: 1.61
16,B16,inactive: 1.26
17,B17,inactive: 0.953
18,B18,inactive: 0.91
19,B19,inactive: 1.12

row,Binder,enrichment score
1,B20,inactive: 0.907
2,B21,inactive: 1.29
3,B22,inactive: 0.664
4,B23,inactive: 0.847
5,B24,inactive: 0.848
6,B25,inactive: 1.34
7,B26,inactive: 1.75
8,B27,inactive: 0.995
9,B28,inactive: 1.04
10,B29,inactive: 0.95
11,B30,inactive: 1.25
12,B31,inactive: 1.28
13,B32,inactive: 0.73
14,B33,inactive: 0.824
15,B34,inactive: 0.845
16,B35,inactive: 1.03
17,B36,inactive: 0.982
18,B37,inactive: 0.913

# Molecular target: SHP2 N-SH2 domain T42A
# Assay: as above
# Details: peptide library: pTyr-Var
row,Binder,enrichment score
1,B1,inactive: 0.688
2,B2,inactive: 0.389
3,B3,inactive: 0.453
4,B4,inactive: 0.478
5,B5,inactive: 0.46
6,B6,inactive: 0.571
7,B7,inactive: 0.457
8,B8,inactive: 0.425
9,B9,inactive: 0.364
10,B10,inactive: 0.554
11,B11,inactive: 0.809
12,B12,inactive: 0.866
13,B13,inactive: 2.83
14,B14,inactive: 0.451
15,B15,inactive: 1.36
16,B16,inactive: 1.14
17,B17,inactive: 1.35
18,B18,inactive: 0.867
19,B19,inactive: 1.07

row,Binder,enrichment score
1,B20,inactive: 0.936
2,B21,inactive: 0.853
3,B22,inactive: 0.783
4,B23,inactive: 0.988
5,B24,inactive: 0.71
6,B25,inactive: 0.861
7,B26,active: 4.07
8,B27,inactive: 1.86
9,B28,inactive: 0.954
10,B29,inactive: 0.727
11,B30,inactive: 0.821
12,B31,inactive: 0.875
13,B32,inactive: 0.556
14,B33,inactive: 0.765
15,B34,inactive: 0.726
16,B35,inactive: 0.781
17,B36,inactive: 0.657
18,B37,inactive: 0.724

# Molecular target: SHP2 N-SH2 domain T52S
# Assay: as above
# Details: peptide library: pTyr-Var
row,Binder,enrichment score
1,B1,inactive: 1.03
2,B2,inactive: 0.382
3,B3,inactive: 0.506
4,B4,inactive: 0.556
5,B5,inactive: 0.431
6,B6,inactive: 0.656
7,B7,inactive: 0.464
8,B8,inactive: 0.493
9,B9,inactive: 0.456
10,B10,inactive: 0.465
11,B11,inactive: 0.676
12,B12,inactive: 0.868
13,B13,active: 3.26
14,B14,inactive: 0.58
15,B15,inactive: 1.43
16,B16,inactive: 1.39
17,B17,inactive: 1.09
18,B18,inactive: 0.768
19,B19,inactive: 1.37

row,Binder,enrichment score
1,B20,inactive: 0.784
2,B21,inactive: 0.976
3,B22,inactive: 0.623
4,B23,inactive: 0.617
5,B24,inactive: 0.741
6,B25,inactive: 0.87
7,B26,inactive: 1.19
8,B27,inactive: 0.951
9,B28,inactive: 0.671
10,B29,inactive: 0.716
11,B30,inactive: 0.831
12,B31,inactive: 0.956
13,B32,inactive: 0.642
14,B33,inactive: 0.703
15,B34,inactive: 0.85
16,B35,inactive: 0.799
17,B36,inactive: 0.552
18,B37,inactive: 0.744

# Molecular target: SHP2 N-SH2 domain wild-type
# Assay: as above
# Details: peptide library: pTyr-Var
row,Binder,enrichment score
1,B1,inactive: 0.959
2,B2,inactive: 0.505
3,B3,inactive: 0.62
4,B4,inactive: 0.464
5,B5,inactive: 0.692
6,B6,inactive: 0.44
7,B7,inactive: 0.45
8,B8,inactive: 0.7
9,B9,inactive: 0.684
10,B10,inactive: 0.769
11,B11,inactive: 0.82
12,B12,inactive: 0.648
13,B13,inactive: 2.69
14,B14,inactive: 0.539
15,B15,inactive: 0.844
16,B16,inactive: 0.999
17,B17,inactive: 1.4
18,B18,inactive: 0.807
19,B19,inactive: 1.74

row,Binder,enrichment score
1,B20,inactive: 0.861
2,B21,inactive: 1.73
3,B22,inactive: 0.779
4,B23,inactive: 1.08
5,B24,inactive: 1
6,B25,inactive: 1.72
7,B26,inactive: 2.43
8,B27,inactive: 1.51
9,B28,inactive: 1.52
10,B29,inactive: 1.21
11,B30,inactive: 1.05
12,B31,inactive: 1.58
13,B32,inactive: 1.04
14,B33,inactive: 1.25
15,B34,inactive: 1.18
16,B35,inactive: 1.12
17,B36,inactive: 0.922
18,B37,inactive: 1.24
